# “And” between values parts separate entries of the source, which are not always exact repeats. Equal entries are not always repeated.
# How the values were obtained:
# [1] = biological target: PF-7802-labelled proteins in ARPE-19 cells (Homo sapiens, UniProt O43707); conditions: O43707 ACTN4 Alpha-actinin-4
# [2] = biological target: PF-7802-labelled proteins in ARPE-19 cells (Homo sapiens, UniProt P05783); conditions: protein KRT18 Keratin, type I cytoskeletal 18 (P05783); one column per replicate
# [3] = biological target: PF-7802-labelled proteins in ARPE-19 cells (Homo sapiens, UniProt P16402); conditions: P16402 HIST1H1D Histone H1.3
# [4] = biological target: PF-7802-labelled proteins in ARPE-19 cells (Homo sapiens, UniProt P25705)
# [5] = biological target: PF-7802-labelled proteins in ARPE-19 cells (Homo sapiens, UniProt P47755); conditions: protein CAPZA2 F-actin-capping protein subunit alpha-2 (P47755)
# [6] = biological target: PF-7802-labelled proteins in ARPE-19 cells (Homo sapiens, UniProt Q01082)
# [7] = biological target: PF-7802-labelled proteins in ARPE-19 cells (Homo sapiens, UniProt Q14697); conditions: Q14697 GANAB Neutral alpha-glucosidase AB
# [8] = biological target: PF-7802-labelled proteins in ARPE-19 cells (Homo sapiens, UniProt Q7L7L0); conditions: protein HIST3H2A Histone H2A type 3 (Q7L7L0); one column per replicate
# [9] = biological target: PF-7802-labelled proteins in ARPE-19 cells (Homo sapiens, UniProt Q9Y277); conditions: VDAC3 Voltage-dependent anion-selective channel protein 3 (Q9Y277)
# [10] = biological target: PF-7802-labelled proteins in ARPE-19 cells (Homo sapiens, UniProt O14983); conditions: protein ATP2A1 Sarcoplasmic/endoplasmic reticulum calcium ATPase 1 (O14983)
# [11] = biological target: PF-7802-labelled proteins in ARPE-19 cells (Homo sapiens, UniProt O95232); conditions: […]; replicates in separate columns
# [12] = biological target: PF-7802-labelled proteins in ARPE-19 cells (Homo sapiens, UniProt P06702); conditions: protein S100A9 Protein S100-A9, P06702
# [13] = biological target: PF-7802-labelled proteins in ARPE-19 cells (Homo sapiens, UniProt P07476); conditions: protein IVL Involucrin (P07476); one column per replicate
# [14] = biological target: PF-7802-labelled proteins in ARPE-19 cells (Homo sapiens, UniProt P0DTE8); conditions: protein AMY1C Alpha-amylase 1 (P04745)
# [15] = biological target: PF-7802-labelled proteins in ARPE-19 cells (Homo sapiens, UniProt P24539); conditions: protein ATP5F1 ATP synthase subunit b, mitochondrial (P24539)
# [16] = biological target: PF-7802-labelled proteins in ARPE-19 cells (Homo sapiens, UniProt P35914); conditions: protein HMGCL Hydroxymethylglutaryl-CoA lyase, mitochondrial (P35914); one column per replicate
# [17] = biological target: PF-7802-labelled proteins in ARPE-19 cells (Homo sapiens, UniProt P49755); conditions: TMED10 Transmembrane emp24 domain-containing protein 10 (P49755)
# [18] = biological target: PF-7802-labelled proteins in ARPE-19 cells (Homo sapiens, UniProt P53985); conditions: SLC16A1 Monocarboxylate transporter 1 (P53985)
# [19] = biological target: PF-7802-labelled proteins in ARPE-19 cells (Homo sapiens, UniProt P61916); conditions: protein NPC2 Epididymal secretory protein E1 (P61916); replicates in separate columns
# [20] = biological target: PF-7802-labelled proteins in ARPE-19 cells (Homo sapiens, UniProt Q06830); conditions: protein PRDX1 Peroxiredoxin-1, Q06830
# [21] = biological target: PF-7802-labelled proteins in ARPE-19 cells (Homo sapiens, UniProt Q13162); conditions: protein PRDX4 Peroxiredoxin-4, Q13162
# [22] = biological target: PF-7802-labelled proteins in ARPE-19 cells (Homo sapiens, UniProt Q13509); conditions: TUBB3 Tubulin beta-3 chain (Q13509)
# [23] = biological target: PF-7802-labelled proteins in ARPE-19 cells (Homo sapiens, UniProt Q5VTJ3); conditions: protein KLHDC7A Kelch domain-containing protein 7A (Q5VTJ3); one column per replicate
# [24] = biological target: PF-7802-labelled proteins in ARPE-19 cells (Homo sapiens, UniProt Q6NZI2); conditions: protein PTRF Polymerase I and transcript release factor, Q6NZI2
# [25] = biological target: PF-7802-labelled proteins in ARPE-19 cells (Homo sapiens, UniProt Q86UP2); conditions: protein KTN1 Kinectin (Q86UP2); replicates in separate columns
# [26] = biological target: PF-7802-labelled proteins in ARPE-19 cells (Homo sapiens, UniProt Q8NBS9); conditions: TXNDC5 Thioredoxin domain-containing protein 5 (Q8NBS9)
# [27] = biological target: PF-7802-labelled proteins in ARPE-19 cells (Homo sapiens, UniProt Q96IX5)
# Sequence of UniProt Q96IX5 (Q96IX5 whole entry): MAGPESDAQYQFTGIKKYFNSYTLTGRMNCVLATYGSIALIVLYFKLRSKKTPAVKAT
# Sequence of UniProt Q01082 (Q01082 whole entry): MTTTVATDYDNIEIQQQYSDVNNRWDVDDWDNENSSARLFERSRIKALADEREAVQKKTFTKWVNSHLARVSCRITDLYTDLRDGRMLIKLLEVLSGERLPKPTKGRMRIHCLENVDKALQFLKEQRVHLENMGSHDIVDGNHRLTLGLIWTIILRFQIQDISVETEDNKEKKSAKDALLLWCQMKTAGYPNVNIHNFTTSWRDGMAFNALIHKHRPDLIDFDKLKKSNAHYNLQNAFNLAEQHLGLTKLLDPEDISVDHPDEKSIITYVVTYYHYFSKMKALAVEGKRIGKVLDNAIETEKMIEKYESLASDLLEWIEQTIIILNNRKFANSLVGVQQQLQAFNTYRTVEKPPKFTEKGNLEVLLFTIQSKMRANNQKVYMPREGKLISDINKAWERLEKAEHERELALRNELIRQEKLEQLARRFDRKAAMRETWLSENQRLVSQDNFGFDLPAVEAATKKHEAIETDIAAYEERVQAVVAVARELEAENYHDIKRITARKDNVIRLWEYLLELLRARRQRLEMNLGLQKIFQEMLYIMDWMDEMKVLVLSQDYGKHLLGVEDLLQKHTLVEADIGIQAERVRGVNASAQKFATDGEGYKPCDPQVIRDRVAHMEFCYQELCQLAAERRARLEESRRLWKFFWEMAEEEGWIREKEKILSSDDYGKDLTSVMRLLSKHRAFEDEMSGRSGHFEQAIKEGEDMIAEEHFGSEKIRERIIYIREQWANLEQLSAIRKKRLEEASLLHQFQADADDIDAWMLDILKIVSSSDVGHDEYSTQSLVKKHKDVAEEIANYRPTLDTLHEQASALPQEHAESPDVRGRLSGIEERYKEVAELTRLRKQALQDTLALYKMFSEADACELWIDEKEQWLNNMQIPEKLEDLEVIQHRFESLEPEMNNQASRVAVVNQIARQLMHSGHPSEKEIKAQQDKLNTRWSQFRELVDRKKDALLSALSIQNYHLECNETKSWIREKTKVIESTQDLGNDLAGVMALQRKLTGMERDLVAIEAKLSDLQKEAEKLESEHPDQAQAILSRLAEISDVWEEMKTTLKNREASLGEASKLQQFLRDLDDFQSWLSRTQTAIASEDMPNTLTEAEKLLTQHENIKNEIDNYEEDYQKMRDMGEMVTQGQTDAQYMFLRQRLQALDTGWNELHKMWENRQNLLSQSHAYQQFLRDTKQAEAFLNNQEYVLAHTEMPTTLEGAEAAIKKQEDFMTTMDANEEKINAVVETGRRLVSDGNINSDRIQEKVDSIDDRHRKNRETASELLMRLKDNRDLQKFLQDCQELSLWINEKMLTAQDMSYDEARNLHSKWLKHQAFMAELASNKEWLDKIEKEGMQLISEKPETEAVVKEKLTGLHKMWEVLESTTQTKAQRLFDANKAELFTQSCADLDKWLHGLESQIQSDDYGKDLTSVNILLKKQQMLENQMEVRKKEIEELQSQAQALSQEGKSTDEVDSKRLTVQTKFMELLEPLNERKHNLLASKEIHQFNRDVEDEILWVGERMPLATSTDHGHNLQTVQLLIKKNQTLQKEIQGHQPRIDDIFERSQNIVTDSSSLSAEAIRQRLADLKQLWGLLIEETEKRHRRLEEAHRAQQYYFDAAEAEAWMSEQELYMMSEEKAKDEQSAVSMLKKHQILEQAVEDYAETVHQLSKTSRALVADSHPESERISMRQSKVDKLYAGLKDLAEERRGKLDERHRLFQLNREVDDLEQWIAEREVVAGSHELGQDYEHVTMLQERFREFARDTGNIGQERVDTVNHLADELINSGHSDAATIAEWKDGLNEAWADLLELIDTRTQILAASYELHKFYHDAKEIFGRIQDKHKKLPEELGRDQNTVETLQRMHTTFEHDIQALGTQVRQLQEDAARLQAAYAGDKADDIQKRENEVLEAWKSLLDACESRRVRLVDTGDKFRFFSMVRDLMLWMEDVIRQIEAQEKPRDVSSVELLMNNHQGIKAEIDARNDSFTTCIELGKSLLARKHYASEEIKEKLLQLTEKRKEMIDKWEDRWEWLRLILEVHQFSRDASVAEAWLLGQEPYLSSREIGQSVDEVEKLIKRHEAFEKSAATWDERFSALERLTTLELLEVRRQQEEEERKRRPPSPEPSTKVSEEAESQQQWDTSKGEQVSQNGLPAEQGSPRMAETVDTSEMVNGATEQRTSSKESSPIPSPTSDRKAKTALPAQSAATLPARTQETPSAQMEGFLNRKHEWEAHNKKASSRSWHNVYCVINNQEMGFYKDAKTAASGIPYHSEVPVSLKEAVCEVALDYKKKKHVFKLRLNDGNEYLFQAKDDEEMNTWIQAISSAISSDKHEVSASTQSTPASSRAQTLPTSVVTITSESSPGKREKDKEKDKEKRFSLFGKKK
# Sequence of UniProt Q06830 (Q06830 whole entry): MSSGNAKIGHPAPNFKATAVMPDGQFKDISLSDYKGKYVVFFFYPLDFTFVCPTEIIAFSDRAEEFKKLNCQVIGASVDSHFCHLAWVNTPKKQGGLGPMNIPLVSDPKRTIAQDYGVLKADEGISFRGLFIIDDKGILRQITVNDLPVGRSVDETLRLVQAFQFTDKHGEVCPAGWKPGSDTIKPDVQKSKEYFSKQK
# Sequence of UniProt Q5VTJ3 (Q5VTJ3 whole entry, the tested form may be a part): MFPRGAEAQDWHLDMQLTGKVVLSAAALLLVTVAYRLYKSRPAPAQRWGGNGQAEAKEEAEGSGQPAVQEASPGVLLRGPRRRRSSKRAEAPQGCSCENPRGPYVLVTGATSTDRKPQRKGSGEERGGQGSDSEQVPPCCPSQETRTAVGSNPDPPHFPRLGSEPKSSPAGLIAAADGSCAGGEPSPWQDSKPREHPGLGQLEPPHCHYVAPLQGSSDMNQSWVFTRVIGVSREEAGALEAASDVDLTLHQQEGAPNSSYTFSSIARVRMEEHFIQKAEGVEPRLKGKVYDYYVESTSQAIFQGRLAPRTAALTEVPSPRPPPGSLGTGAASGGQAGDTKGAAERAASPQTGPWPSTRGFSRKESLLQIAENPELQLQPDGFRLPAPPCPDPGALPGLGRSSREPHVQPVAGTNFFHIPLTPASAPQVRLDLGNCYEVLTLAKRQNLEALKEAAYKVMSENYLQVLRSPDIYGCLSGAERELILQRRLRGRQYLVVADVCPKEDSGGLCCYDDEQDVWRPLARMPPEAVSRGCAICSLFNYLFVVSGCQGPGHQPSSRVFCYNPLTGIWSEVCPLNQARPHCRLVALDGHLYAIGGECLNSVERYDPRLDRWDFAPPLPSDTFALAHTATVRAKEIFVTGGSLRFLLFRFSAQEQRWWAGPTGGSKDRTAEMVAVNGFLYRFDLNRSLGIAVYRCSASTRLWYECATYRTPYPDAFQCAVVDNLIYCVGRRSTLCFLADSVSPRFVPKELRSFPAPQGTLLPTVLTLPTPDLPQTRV
# Sequence of UniProt P16402 (P16402 whole entry): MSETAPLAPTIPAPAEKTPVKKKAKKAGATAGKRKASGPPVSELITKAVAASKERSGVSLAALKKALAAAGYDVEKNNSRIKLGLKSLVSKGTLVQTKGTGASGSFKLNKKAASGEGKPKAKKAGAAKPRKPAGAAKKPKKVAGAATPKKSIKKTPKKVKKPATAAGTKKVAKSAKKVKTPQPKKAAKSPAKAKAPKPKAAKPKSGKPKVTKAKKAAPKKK
# Sequence of UniProt P05783 (P05783 whole entry): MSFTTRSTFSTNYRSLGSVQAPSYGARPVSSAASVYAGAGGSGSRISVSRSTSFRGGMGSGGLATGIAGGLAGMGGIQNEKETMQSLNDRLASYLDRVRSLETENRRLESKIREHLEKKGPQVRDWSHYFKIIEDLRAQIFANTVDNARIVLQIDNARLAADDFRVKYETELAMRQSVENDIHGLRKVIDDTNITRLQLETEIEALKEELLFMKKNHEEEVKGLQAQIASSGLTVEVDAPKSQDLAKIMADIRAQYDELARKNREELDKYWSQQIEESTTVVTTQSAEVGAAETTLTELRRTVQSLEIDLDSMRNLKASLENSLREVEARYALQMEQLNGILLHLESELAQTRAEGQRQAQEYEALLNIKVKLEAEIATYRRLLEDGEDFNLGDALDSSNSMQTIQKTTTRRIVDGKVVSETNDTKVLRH
# Sequence of UniProt Q6NZI2 (Q6NZI2 whole entry): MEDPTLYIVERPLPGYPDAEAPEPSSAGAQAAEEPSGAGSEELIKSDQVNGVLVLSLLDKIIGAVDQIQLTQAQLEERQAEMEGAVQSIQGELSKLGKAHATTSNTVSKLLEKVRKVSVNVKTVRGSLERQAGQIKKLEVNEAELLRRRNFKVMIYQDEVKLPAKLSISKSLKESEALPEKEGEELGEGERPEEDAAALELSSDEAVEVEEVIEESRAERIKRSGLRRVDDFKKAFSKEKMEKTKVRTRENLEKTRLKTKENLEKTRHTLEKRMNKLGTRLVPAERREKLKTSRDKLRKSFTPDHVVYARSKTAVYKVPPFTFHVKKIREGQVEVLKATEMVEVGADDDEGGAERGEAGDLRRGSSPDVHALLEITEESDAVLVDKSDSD
# Sequence of UniProt Q9Y277 (Q9Y277 whole entry): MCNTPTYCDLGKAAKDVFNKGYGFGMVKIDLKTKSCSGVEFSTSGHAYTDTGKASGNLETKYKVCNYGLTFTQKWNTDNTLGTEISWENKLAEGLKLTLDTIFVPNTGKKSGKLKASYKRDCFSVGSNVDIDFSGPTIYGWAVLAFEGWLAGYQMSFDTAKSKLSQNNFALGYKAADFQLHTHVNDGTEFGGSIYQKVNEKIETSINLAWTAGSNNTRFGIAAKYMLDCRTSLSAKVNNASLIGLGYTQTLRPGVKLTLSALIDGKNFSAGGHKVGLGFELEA
# Sequence of UniProt P06702 (P06702 whole entry): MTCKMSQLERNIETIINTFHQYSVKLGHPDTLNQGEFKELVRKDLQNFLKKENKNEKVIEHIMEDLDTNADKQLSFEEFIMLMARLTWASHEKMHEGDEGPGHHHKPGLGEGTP
structure (smiles),measurement,setting,value
"CNC1CCN(C(=O)C[C@@H](Cc2ccccc2)C(=O)N[C@@H](CSC)C(=O)N[C@@H](CC2CCCCC2)[C@@H](O)C(=O)OC(C)C)CC1 [CP-108671, reference compound]",SILAC ratio (DMSO/CP-108671),[1],0.65
same,Median SILAC Ratio (Heavy/Light),[2],1.044
same,SILAC ratio (DMSO/CP-108671),[3],0.89
same,SILAC ratio (DMSO/CP-108671),"[4]; P25705 ATP5A1 ATP synthase subunit alpha, mitochondrial",0.91
same,Median SILAC Ratio (Heavy/Light),"[4]; protein ATP5A1 ATP synthase subunit alpha, mitochondrial (P25705)",1.108 and 0.8571
same,Median SILAC Ratio (Heavy/Light),[5],1.363
same,SILAC ratio (DMSO/CP-108671),"[6]; Q01082 SPTBN1 Spectrin beta chain, non-erythrocytic 1",0.85
same,Median SILAC Ratio (Heavy/Light),"[6]; SPTBN1 Spectrin beta chain, non-erythrocytic 1 (Q01082)",1.177
same,SILAC ratio (DMSO/CP-108671),[7],0.85
same,Median SILAC Ratio (Heavy/Light),[8],0.834
same,Median SILAC Ratio (Heavy/Light),[9],1.255
Cc1cc([C@H]2C[C@H]3[C@@H](C)SC(N)=N[C@@]3(c3ccc(F)cc3F)CO2)on1 [PF-9283],Median SILAC Ratio (Heavy/Light),[10],1.378
same,Median SILAC Ratio (Heavy/Light),[11],0.7405
same,Median SILAC Ratio (Heavy/Light),[12],43.83
same,Median SILAC Ratio (Heavy/Light),[13],6.011
same,Median SILAC Ratio (Heavy/Light),[14],0.6384
same,Median SILAC Ratio (Heavy/Light),[15],1.2909
same,Median SILAC Ratio (Heavy/Light),[16],1.531
same,Median SILAC Ratio (Heavy/Light),[17],1.189
same,Median SILAC Ratio (Heavy/Light),[18],1.26
same,Median SILAC Ratio (Heavy/Light),[19],0.6963 and 0.7218 and 1.705
same,Median SILAC Ratio (Heavy/Light),[20],2.266 and 2.5408
same,Median SILAC Ratio (Heavy/Light),[21],1.405
same,Median SILAC Ratio (Heavy/Light),[22],1.723
same,Median SILAC Ratio (Heavy/Light),[23],0.6479
same,Median SILAC Ratio (Heavy/Light),[24],1.575
same,Median SILAC Ratio (Heavy/Light),[25],1.726
same,Median SILAC Ratio (Heavy/Light),[26],1.396 and 0.8034
same,Median SILAC Ratio (Heavy/Light),[27],0.7497
